# Paper PMC4336329 (PLoS ONE, 2015)
# Out of some 310,000 compounds screened, about 2,200 (0.71%) showed an effect of 50% or more. Effects have a minus sign here. The list shows a part of the results.
# Target: human ether-à-go-go-related gene (hERG) potassium channel (human, UniProt Q12809)
# Assay: primary screen, population patch clamp on CHO cells stably expressing hERG
# Chain of human ether-à-go-go-related gene (hERG) potassium channel (Q12809 whole entry, looked up): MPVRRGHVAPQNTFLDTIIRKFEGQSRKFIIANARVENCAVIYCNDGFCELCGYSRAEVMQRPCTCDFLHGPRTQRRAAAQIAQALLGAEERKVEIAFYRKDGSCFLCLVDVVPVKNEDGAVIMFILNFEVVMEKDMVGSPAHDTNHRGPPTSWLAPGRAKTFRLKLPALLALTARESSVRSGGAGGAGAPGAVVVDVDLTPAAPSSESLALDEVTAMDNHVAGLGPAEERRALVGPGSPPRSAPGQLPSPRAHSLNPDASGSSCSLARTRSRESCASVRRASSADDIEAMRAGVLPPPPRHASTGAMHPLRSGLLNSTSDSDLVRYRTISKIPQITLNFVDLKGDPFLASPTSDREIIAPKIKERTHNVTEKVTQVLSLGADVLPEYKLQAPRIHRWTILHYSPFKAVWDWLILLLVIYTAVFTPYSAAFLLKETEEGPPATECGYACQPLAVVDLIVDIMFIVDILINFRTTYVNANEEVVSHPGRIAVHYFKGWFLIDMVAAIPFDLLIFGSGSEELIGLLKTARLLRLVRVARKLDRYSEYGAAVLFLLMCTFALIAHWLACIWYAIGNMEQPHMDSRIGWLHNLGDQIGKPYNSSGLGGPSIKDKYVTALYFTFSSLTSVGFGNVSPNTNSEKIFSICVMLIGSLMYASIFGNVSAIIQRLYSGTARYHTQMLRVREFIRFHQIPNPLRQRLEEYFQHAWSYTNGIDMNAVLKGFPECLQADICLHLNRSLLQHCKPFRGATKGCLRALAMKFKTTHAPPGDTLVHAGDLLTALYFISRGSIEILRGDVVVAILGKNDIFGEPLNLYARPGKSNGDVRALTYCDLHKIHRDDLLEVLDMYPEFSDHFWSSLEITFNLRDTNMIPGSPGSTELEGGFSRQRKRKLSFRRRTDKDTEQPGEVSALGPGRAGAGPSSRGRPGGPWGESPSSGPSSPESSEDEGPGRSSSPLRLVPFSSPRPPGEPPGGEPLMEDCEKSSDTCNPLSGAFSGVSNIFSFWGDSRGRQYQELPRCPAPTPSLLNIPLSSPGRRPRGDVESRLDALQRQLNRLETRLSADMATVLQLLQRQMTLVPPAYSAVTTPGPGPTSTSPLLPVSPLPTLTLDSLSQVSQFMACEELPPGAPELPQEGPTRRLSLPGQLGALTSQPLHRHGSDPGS
row,SMILES,"hERG current change (%, negative = inhibition) at 1uM [%]"
1,O=C(O/N=C1\CCCc2ccccc21)c1cccs1,17.4
2,Br.CC1(C(=O)CSc2n[nH]c(-c3ccccc3Cl)n2)CCC(=O)O1 (centres unmarked),8.24
3,COc1cc(CN(C)C(C)C(=O)Nc2ccc([N+](=O)[O-])cc2Cl)ccc1OC(F)F (centres unmarked),11.1
4,Cc1cc(N/N=C2/CCCc3ccccc32)nc2ccccc12,19
5,Cc1cc2n(n1)SC(Nc1ccccc1)N2 (centres unmarked),7.56
6,CC1(C)Cc2cccc(OCC(=O)N3CCN(c4ccc(F)cc4)CC3)c2O1,-16.2
7,COc1ccc(S(=O)(=O)N2CCOCC2)cc1N(C)S(=O)(=O)c1ccc(C)cc1,3.84
8,CCC(=O)Nc1cc(-c2nn(C)c(=O)c3ccccc23)ccc1N1CCCCC1,3.86
9,Cc1cc(N/C=C(\C#N)S(=O)(=O)c2ccccc2Cl)nc(C)n1,14.1
10,CCn1c(SCC(=O)Nc2nc3ccccc3s2)nnc1-c1ccc(Br)cc1,4.76
11,COC(=O)/C=C/c1cc(F)ccc1S(=O)(=O)NC(C)(C)C,7.33
12,Cc1cc(=O)[nH]c(N/N=C/c2c(C)nn(-c3ccc(F)cc3)c2Cl)n1,-3.02
13,O=C(O)/C=C/c1cn(Cc2ccccc2)nc1-c1cccnc1,14.1
14,CCN1CCc2c(OCC(=O)Nc3cccc(C)c3C)cccc2C1=O,-5.24
15,O=C(Nc1ccc(C(=O)O)cc1)/C(=C\c1ccc([N+](=O)[O-])cc1)NC(=O)c1ccc(Br)cc1,6.96
16,Cc1ccc(C(=O)N[C@@H](C)CN2C3=NC[C@H](Cc4ccccc4)N3C[C@H]2Cc2ccc(O)cc2)cc1Br,-68.1
17,COc1cc(-c2nnc(Cn3cc(C(F)(F)F)ccc3=O)o2)cc(OC)c1OC,12.8
18,CC1CN(S(=O)(=O)c2cccc(C(=O)NCCCn3ccnc3)c2)CC(C)O1.Cl (centres unmarked),9.1
19,CCn1nnc(-c2ccccc2NC(=O)C(F)(F)F)n1,-1.33
20,CN1CCN(NC(=O)c2cccc(C(F)(F)F)c2)CC1,9.29
21,COc1ccc(-c2[nH]ncc2/C=N\NC(=O)c2cccs2)cc1OC,4.31
22,CC(=O)N(C1=C(O)c2ccccc2C(=O)C1=O)C1CCCCC1,2.84
23,COc1ccc2c(c1)[C@@H]1[C@H](CO2)[C@H](c2ccccc2)[C@]2(C)C(=O)NCC(=O)N12,10.2

row,SMILES,"hERG current change (%, negative = inhibition) at 1uM [%]"
1,CCN(CC)C(=S)SCC(=O)c1ccc(Br)cc1,12
2,NCCCC[C@@H](C(=O)NCCCCCCCCCCC(=O)N1CCNCC1)n1cc(CCCC(=O)O)nn1,3.28
3,Cc1sc(NC(=S)NC(=O)CCc2ccccc2)c(C(N)=O)c1C,10.5
4,CCOC(=O)c1sc(NC(=O)CCCn2nc([N+](=O)[O-])c(Cl)c2C)c(C(=O)OCC)c1C,7.97
5,CC12CC[C@H]3[C@@H](CCC4(O)C[C@H](O)CCC34/C=N/NC(=O)c3ccc(O)cc3)C1(O)CCC2C1=CC(=O)OC1 (some centres unmarked),11.5
6,Cc1ccn2cc(CCNS(=O)(=O)c3ccc(F)c(C(F)(F)F)c3)nc2c1,6.15
7,Cc1nn(-c2ccccc2)c(Oc2ccccc2)c1C=O,5.95
8,CCCCOc1ccccc1NC(=O)CSc1nnnn1C(C)(C)C,-3.47
9,COc1ccc(-n2nnnc2SCC(=O)NCCc2ccc(OC)c(OC)c2)cc1,2.56
10,Cc1cccc(NC(=O)c2ccccn2)c1C,-0.137
11,COC(=O)c1ccc(CC(C(=O)c2ccccc2)N(C)C)cc1.Cl (centres unmarked),12.8
12,O=c1[nH][nH]c(C(F)(F)F)c1C=Nc1ccc(Cl)cc1,-0.612
13,CC(C)(C)n1nc2c(c1NC(=O)Cc1cccs1)CSC2,13.1
14,Nc1nonc1-n1nnc(C(=O)N/N=C/c2cccnc2)c1-c1cccs1,5.01
15,CCc1ccc(C(=O)/C=C/c2cnn(C)c2C)s1,-13
16,CCNC(=S)NNC(=O)c1csc(C(C)C)c1,7.61
17,O=C(N/N=C/c1ccc2ncccc2c1)c1cccc([N+](=O)[O-])c1,15.3
18,COC(=O)c1ccc(CSc2ccc3nnc(-c4ccccn4)n3n2)o1,-36.5
19,O=C1NC(c2cc(Cl)cc([N+](=O)[O-])c2O)Nc2ccccc21 (centres unmarked),12
20,CCc1sc(C(=O)N2CCN(c3ccc(F)cc3)CC2)cc1C,14.4
21,Cn1c(=O)c2c([nH]c(=S)n2CCCc2ccccc2)n(C)c1=O,14.9
22,O=C(CCC1CCCCC1)NCc1ccncc1,9.48
23,Cc1cccc(CN(C)C)c1OC(=O)N(C)C.Cl,-15

row,SMILES,"hERG current change (%, negative = inhibition) at 1uM [%]"
1,Cc1ccc(C(=O)CC(C(=O)O)P(=O)(c2ccccc2)c2ccccc2)cc1 (centres unmarked),18
2,CC(C)(Oc1ccc(Cl)cc1)C(=O)O/N=C(\N)c1ccncc1,5.96
3,COc1ccc(CN2CCN(C(=O)c3ccccc3F)CC2)c(OC)c1OC,12.1
4,CC(=O)Nc1ccc(NC(=O)C(C)OC(=O)C(C)SCC(=O)Nc2ccc(F)cc2)cc1 (centres unmarked),13.2
5,C=CCNc1cc(=O)n(Cc2ccccc2)c(=O)[nH]1,12.2
6,COc1cc2c(C#N)c(N3CCCC3)nc(N)c2c(N)n1,11.2
7,COc1ccc(N2CCN(C(=O)CN3C(=O)NC4(CCCCCC4)C3=O)CC2)cc1,10.7
8,O=C(COc1ccccc1)N1CCN(CC2CC3C=CC2C3)CC1.O=C(O)C(=O)O (centres unmarked),6.34
9,CCOc1ccc(N(CC(=O)Nc2nccs2)S(=O)(=O)c2c(C)[nH]c(=O)[nH]c2=O)cc1,14.6
10,CCN(CC)C(=S)Nc1ccc(OC)cc1,26
11,CCCN1CNC(=S)N(c2ccc(C)cc2C)C1,12.5
12,CCOC(=O)N/N=C(/C)c1ccc(N2C(=O)C3CCCCC3C2=O)cc1 (centres unmarked),5.01
13,CC(C)CCN(C(=S)Nc1cccc(F)c1)C1CCN(C(C)C)CC1,-7.78
14,CC(C)(C)OC(=O)N1CCN(C(=O)Cn2cc(CCO)nn2)CC1,27.7
15,O=C(Oc1ccccc1)c1ccc(-n2cnnn2)cc1,15.5
16,CN1CCN(C(=O)CSc2nc3c(c(=O)n(C)c(=O)n3C)n2C)CC1,11
17,COC(=O)CN(c1ccccc1F)S(=O)(=O)c1ccccc1,-3.91
18,CC(C)C(NC(=O)OCc1ccccc1)C(=O)NCc1ccc(C(=O)O)cc1 (centres unmarked),-3.16
19,Cc1ccc(C(=O)N2CCCC(N3CCN(c4cccc(C(F)(F)F)c4)CC3)C2)s1 (centres unmarked),0.145
20,Cc1ccc(NC(=O)c2cccc(C(=O)Nc3ccc(C)c(C)c3)n2)cc1C,5.55
21,CC1=C(C(=O)OCc2ccccc2)C(c2cccc(Cl)c2Cl)NC(=O)N1CCCCCC(=O)O (centres unmarked),8.61
22,COC1CCCCC1Nc1ccc(C)c(C)c1 (centres unmarked),2.22
23,COc1ccc(N(C)C(=O)c2cc3c(s2)-c2c(C)cccc2OC3)c(OC)c1,5.05

row,SMILES,"hERG current change (%, negative = inhibition) at 1uM [%]"
1,CN(/N=C/c1ccccc1)C(=S)c1ccccc1,12.1
2,Cc1csc2nc(CCNS(=O)(=O)c3cccs3)cn12,11
3,CCOC(=O)c1[nH]c2ccccc2c1NC(=O)COC,1.11
4,CC(C)=C(NC(=O)c1ccccc1Br)C(=O)NCCc1nc2ccccc2[nH]1,7.69
5,CCc1noc(C)c1C(=O)Nc1cc(Cl)ccc1N1CCOCC1,-4.33
6,Clc1ccc2c(NCc3cccs3)ncnc2c1,12.6
7,CCCNc1c(NS(=O)(=O)c2ccc(Br)cc2)c(=O)oc2ccccc12,-9.71
8,Cc1nonc1NC(=O)N1CCCC1,-14.4
9,COc1ccc(C(=O)CC(=O)C(=O)Nc2ccc(C)c(C)c2)cc1,-3.98
10,CCN(CC)CCCNC(=O)CSc1nc(-c2cccs2)cc(C(F)(F)F)n1,1.86
11,O=C(N/N=C/c1ccc(N2CCOCC2)cc1)c1ccc(O)cc1,15.9
12,C=CCN(CC=C)CCCOc1ccccc1C(=O)OC.O=C(O)C(=O)O,-48.9
13,CCCOc1ccc(NC(=O)c2c(-c3ccccc3)noc2C)cc1,-6.18
14,O=C(c1cccnc1)N1CCN(S(=O)(=O)c2ccc(Cl)cc2)CC1,1.21
15,O=C(NCCc1ccccc1)c1ccccc1SCC(=O)N1CCCC1,-27.3
16,COc1ccc(C(=O)NCCN2CCCC2)cc1OC.Cl,2.79
17,Cc1ccc2cc(CCNC(=O)c3c(-c4ccccc4Cl)noc3C)c(=O)[nH]c2c1,-3.85
18,COc1ccc(/C=N/N2C(=O)C3C4C=CC(CC4)C3C2=O)c(OC)c1 (centres unmarked),2.62
19,COc1ccc2cc3cc(C(=O)NCc4ccc5c(c4)OCO5)oc3nc2c1,5.52
20,COc1cc(C(=O)NCCCN2CCCC2=O)cc(OC)c1OC,-2.13
